# Results: ChEMBL document CHEMBL1201862, “PubChem BioAssay data set” (2004)
#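 Exposure lasted 48 hours, with cells grown in 96-well plates and compounds tested at five concentrations. Abbreviation: GI50, concentration required for 50% inhibition of growth.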 Calls of active or inactive are those of the source. Rule as the data show it: active = GI50 up to about 1.1 µM and inactive = higher.
# System: NCI-H322M
# Experiment: DTP human tumour cell line panel, 48 h
row,Compound,GI50
1,Cc1cc(C)c2c(=N)c3ccccc3n(CCCCCCO)c2n1,inactive: 5.41 µM
2,COc1cc(/C=C2/C[C@H]3[C@@H]4CCC5=CC(=O)CC[C@]5(C)[C@H]4CC[C@]3(C)NC2=O)cc(OC)c1OC,inactive: 15 µM
3,CCN(CC)CCNC(=O)c1cc2cc(NC(=O)c3cc4cc([N+](=O)[O-])ccc4[nH]3)ccc2[nH]1,inactive: 5.37 µM
4,COc1ccc(N2C(=O)/C(=C\c3cc(OC)c(OC)c(OC)c3)SC2c2ccccc2)cc1 (stereo unspecified),inactive: > 100 µM
5,Cc1cccc2c1CC1(Cc3ccccc3C1=O)C2=O (stereo unspecified),inactive: > 100 µM
6,CSC1=N/C(=C\c2ccc(Cl)cc2)C(=O)N1CN1CCCCC1,inactive: 50.1 µM
7,Cc1c(-c2nc(N)c(C#N)c(N)c2C#N)c(=O)oc2ccccc12,inactive: > 100 µM
8,O=C(NCCNCCO)N/N=C/c1cccc([N+](=O)[O-])c1,inactive: > 100 µM
9,Cc1ccc(NC(=O)/C(Cl)=C(/Cl)C(=O)O)cc1,inactive: 41.7 µM
10,Cc1csc2c1C(=O)c1ccsc1C2=O,inactive: 2.16 µM
11,O=C(NCCCCCCCCNC(=O)c1cnc2ccccc2n1)c1cnc2ccccc2n1,inactive: > 100 µM
12,Cn1cc(NC(=O)c2cc(NC(=O)CCCCCCCCCCC(=O)Nc3cc(C(=O)Nc4cc(C(=O)NCCC(=N)N)n(C)c4)n(C)c3)cn2C)cc1C(=O)NCCC(=N)N,inactive: 15.9 µM
13,COC(=O)C(=O)C(C(=O)C(=O)Nc1cccc(C(C)=O)c1)c1nc2ccc([N+](=O)[O-])cc2nc1O (stereo unspecified),inactive: > 100 µM
14,Cc1ccsc1C(=S)Nc1ccc(Cl)c(C(=O)OC(C(C)C)C(C)C)c1,inactive: 35.6 µM
15,CCOC(=O)N1Cc2ccoc2C1,inactive: > 100 µM
16,COc1ccccc1NC(=O)C(=O)C(C#N)CC(C)(C)C=O (stereo unspecified),inactive: > 100 µM
17,O/N=C1\Nc2ccccc2OCc2cc(Br)c(Br)cc2COc2ccccc2N\C1=N/O,inactive: 11.3 µM
18,CC1CC[C@]2(C(=O)O)CCC3(COC(=O)/C=C\c4ccc(O)cc4)C(=CCC4[C@@]5(C)CC[C@H](O)C(C)(C)C5CC[C@]43C)[C@@H]2[C@H]1C (stereo partly specified),inactive: 16.6 µM

row,Compound,GI50
1,CCOC(=O)c1nnsc1N/N=C\c1ccc([N+](=O)[O-])cc1,inactive: > 100 µM
2,COC(=O)C(CCSC)NC(=O)Cc1ccc(C(=O)c2ccccc2)cc1 (stereo unspecified),inactive: > 100 µM
3,COc1cc(/C=C/c2ccc(Br)cc2)cc(OC)c1OC,inactive: 20 µM
4,O=C(Nc1c(Cl)cc([N+](=O)[O-])cc1Cl)C(=O)C(C1OC(=O)c2ccccc21)[N+](=O)[O-] (stereo unspecified),inactive: > 100 µM
5,O=C(Nc1cccc(NC(=O)c2cc(=O)c3ccccc3o2)n1)c1cc(=O)c2ccccc2o1,inactive: 15 µM
6,COc1cccc(-c2cc(O)c3ccccc3n2)c1,inactive: 5 µM
7,Cn1c(-c2ccccc2)c/c(=N\NS(C)(=O)=O)c2cc(S(=O)(=O)O)ccc21,inactive: > 100 µM
8,N#CC(=N)c1ncn(CCO)c1NC(=O)C(F)(F)F,inactive: > 100 µM
9,Cc1ccc(N2Cc3c(ccc4ccccc34)OP2(=S)N2CCCC2)cc1 (stereo unspecified),inactive: > 63.4 µM
10,FC(F)(F)c1cccnc1Sc1nc2ccccc2s1,inactive: > 100 µM
11,N#C/C(N)=C(C#N)/N=C/NCCO,inactive: > 100 µM
12,NCCCCCC(CCN)SCC1OC(n2cnc3c(N)ncnc32)C(O)C1O (stereo unspecified),inactive: > 1040 µM
13,Cc1cnc(-c2c[nH]c3ccccc23)nc1-c1c[nH]c2ccccc12,inactive: 12.3 µM
14,O=C1C(=Cc2c(O)cc(O)cc2O)C(=O)c2ccccc21,inactive: > 45.2 µM
15,CC(C)CC(=O)NC(C(=O)NC(C(=O)NC(CC(C)C)C(O)CC(=O)NC(C)C(=O)NC(CC(C)C)C(O)CC(=O)O)C(C)C)C(C)C (stereo unspecified),inactive: > 100 µM
16,c1ccc(/N=C(/Nc2ccccc2)N2CCCC2)cc1,inactive: > 100 µM
17,Oc1ccccc1/C=N/c1ccc(Oc2ccc(Cl)cc2)c(Cl)c1,inactive: 22 µM
18,O=C1CSC2=NC3=C(COC/C3=C\c3ccc(F)cc3)C(c3ccc(F)cc3)N12 (stereo unspecified),inactive: 47.5 µM
